# Reference: PubChem BioAssay AID588342 (National Center for Advancing Translational Sciences (NCATS), 2011)
# Out of some 360,000 compounds screened, about 25,000 (6.9%) were called active. This list was built around the results that the source calls inconclusive (neither active nor inactive); the mix of calls is not that of the screen. The call rests on the fitted dose curve; in most records, active means well fitted inhibition curve with a large enough effect; inconclusive means small, poorly fitted or top-dose-only effect; inactive means flat fitted curve, though single readings scatter. Potencies beside an inconclusive call are fits to weak or partial responses and may not hold up.
# Molecular target: Luciferin 4-monooxygenase (Photinus pyralis) (UniProt P08659)
# Chain of UniProt P08659 (P08659 whole entry, looked up): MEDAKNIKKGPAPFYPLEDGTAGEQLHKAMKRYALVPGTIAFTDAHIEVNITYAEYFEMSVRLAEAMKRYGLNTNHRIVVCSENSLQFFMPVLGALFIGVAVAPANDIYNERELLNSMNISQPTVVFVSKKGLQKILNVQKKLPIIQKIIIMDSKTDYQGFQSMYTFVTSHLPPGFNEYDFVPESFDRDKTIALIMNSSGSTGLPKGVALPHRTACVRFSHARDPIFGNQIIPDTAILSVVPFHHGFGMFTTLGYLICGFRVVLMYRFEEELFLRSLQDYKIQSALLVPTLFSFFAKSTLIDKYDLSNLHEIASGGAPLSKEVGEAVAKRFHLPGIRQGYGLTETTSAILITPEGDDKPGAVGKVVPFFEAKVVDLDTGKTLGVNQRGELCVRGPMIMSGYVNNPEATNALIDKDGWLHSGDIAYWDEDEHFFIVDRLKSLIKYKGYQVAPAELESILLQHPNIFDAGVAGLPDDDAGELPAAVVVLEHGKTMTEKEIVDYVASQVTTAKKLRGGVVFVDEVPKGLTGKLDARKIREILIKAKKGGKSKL
# Test: qHTS profiling assay for firefly luciferase inhibitor/activator using purifed enzyme and Km concentrations of substrates (counterscreen for miR-21 project); further: nearly all actives have a fitted effect of over 55% in size;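 on activity change, negative = inhibition: plate controls were vehicle for no effect and reference inhibitor for full effect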
# Settings: purified FLuc, luminescence inhibition; activity change, negative = inhibition: at 57.5 µM (top of the series)
# Method in brief: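 Biochemical qHTS of compounds, final roughly 60 µM downward over six points, against 10 nM purified firefly luciferase using Km concentrations of substrates (10 uM D-luciferin, 10 uM ATP) in Tris acetate pH 7.5 buffer; luminescence output.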
# Potency means the concentration at half of the fitted maximal effect; tags describe the fitted curve by direction and shape.
Compound,"activity change, negative = inhibition",Potency
CCC(NC(=S)NCc1ccc(F)cc1)c1ccc(C)cc1 (stereo not drawn),inactive: 2.18%,
COc1ccc(-n2c(C)cc(/C=C3\C(=N)N4N=C(CC(=O)N5CCOCC5)SC4=NC3=O)c2C)c(OC)c1,,"inconclusive: 26.9 µM [inhibitor, partial curve, poor fit]"
O=C(CSc1nnc(-c2ccccc2)c(-c2ccccc2)n1)Nc1ccc(Br)cn1,inactive: 0.712%,
CCc1cc(=O)[nH]c(SCc2nc(-c3ccccc3)no2)n1,,"inconclusive: 23.9 µM [inhibitor, partial curve, poor fit]"
CSc1cccc(NC(=O)c2ccco2)c1,,"inconclusive: 37.9 µM [inhibitor, single point]"
O=C(N/N=C/C1CC2CCC1C2)C1CC1 (stereo not drawn),inactive: -0.463%,
COc1ccc(NC(=O)CN2CCC(C)CC2)c([N+](=O)[O-])c1,,"inconclusive: 26.9 µM [inhibitor, single point]"
O=C(O)CC1S/C(=N/N=C/c2ccc(-c3ccc(Cl)cc3[N+](=O)[O-])o2)NC1=O (stereo not drawn),,"inconclusive: 26.9 µM [inhibitor, single point]"
CC(=O)Nc1nnc(SCC(=O)NCCOc2ccccc2)s1,inactive: 2.2% [at 2.3 µM],
COc1cc2ccccc2cc1C(=O)Nc1ccc(CN2CCOCC2)cc1,,active: 15.1 µM
CCNC(=O)c1c(NC(=O)c2nc(S(=O)(=O)CC)ncc2Cl)sc2c1CCCC2,,"inconclusive: 15.1 µM [inhibitor, partial curve, poor fit]"
O=C(CNC(=O)c1ccccc1)Nc1ccsc1C(=O)O,inactive: -7.96%,
N=c1c(S(=O)(=O)c2ccc(Cl)cc2)cc2c(=O)n3ccccc3nc2n1C1CCCCC1,,"inconclusive: 23.9 µM [inhibitor, single point]"
CC(=O)c1cccc(NC(=O)NCc2ccc3c(c2)OCO3)c1,,"inconclusive: 15.1 µM [inhibitor, partial curve, poor fit]"
O=C(O)c1cc(-c2ccc(-c3c(-c4ccc5c(c4)OCO5)noc3-c3ccsc3)cc2)nc2ccccc12,,active: 19 µM
CCN(CC)c1ccc(NC(=O)COC(=O)Cc2ccsc2)cc1,,"inconclusive: 21.3 µM [inhibitor, partial curve, poor fit]"
CC(C)(C)c1ccc(C(=O)NCc2nnc(SCC(=O)NC3CCCCC3)o2)cc1,,active: 19 µM
CCC(=O)N1CCc2cc(Br)cc(S(=O)(=O)CCC(=O)Nc3cccc(C)c3C)c21,inactive: 0.617%,
O=C(Oc1ccccc1Cl)c1ccc(-n2cncn2)nc1,,"inconclusive: 6.01 µM [inhibitor, full curve]"
COc1ccc2o/c(=N\O)c(C(=O)Nc3ccccc3OC)cc2c1,,"inconclusive: 30.1 µM [inhibitor, partial curve, poor fit]"
CN(C[C@H](Cc1ccccc1)N(C[C@H](c1ccccc1)N(CCc1ccccc1)N=O)N=O)N=O,inactive: 0.89%,
CCOC(=O)Nc1sc2c(c1C(N)=O)CCC(C)C2 (stereo not drawn),,"inconclusive: 8.49 µM [inhibitor, partial curve, poor fit]"
CCc1nnc(NC(=O)CSc2ncc(-c3ccccc3)[nH]2)s1,,"inconclusive: 23.9 µM [inhibitor, single point]"

Compound,"activity change, negative = inhibition",Potency
COc1cc(C(=O)OCC(=O)NCc2ccc(F)cc2)cc(NC(=O)c2cccs2)c1OC,,"inconclusive: 13.5 µM [inhibitor, partial curve, poor fit]"
Cc1nn(-c2ccccc2)c2sc(C(=O)OC3CCOC3=O)cc12 (stereo not drawn),,active: 15.1 µM
O=c1c(Cc2c(F)cccc2Cl)c(O)ccn1CCCn1ccnc1,inactive: 2.3%,
O=C(NCCc1ccccc1)c1ccncc1,,"inconclusive: 23.9 µM [inhibitor, partial curve]"
Cc1cc(F)ccc1NCC(=O)Nc1ccccc1Br,,"inconclusive: 23.9 µM [inhibitor, partial curve, poor fit]"
CCOc1ccc(NC(=O)CCc2c(C)nc3cc(-c4ccc(Cl)cc4)nn3c2C)cc1,,active: 6.75 µM
COC(=O)c1sccc1NC(=O)CC1C(=O)NCCN1C(=O)Nc1ccccc1 (stereo not drawn),inactive: 3.48%,
O=C(Cc1cnn(-c2ccccc2)c1)c1ccc(O)c(O)c1O,,"inconclusive: 37.9 µM [inhibitor, single point]"
Cc1ccc(/C=N/NC(=O)c2cc(C)oc2C)o1,,"inconclusive: 23.9 µM [inhibitor, partial curve, poor fit]"
Cc1ccc2cc(CCl)c(Cl)nc2c1,,"inconclusive: 26.9 µM [inhibitor, partial curve, poor fit]"
CCCn1cnc2cc(NCc3ccc(OC)cc3OC)ccc21,,"inconclusive: 19 µM [inhibitor, partial curve, poor fit]"
Cc1cc(=O)oc2cc(OCC(=O)Nc3ccc(O)c(C(=O)O)c3)ccc12,,"inconclusive: 15.1 µM [inhibitor, partial curve]"
Oc1ccc(NCc2ccc(OCc3ccccc3)cc2)cc1,,active: 26.9 µM
COc1cc(CO)ccc1OCC(=O)Nc1ccc(Br)cc1,,"inconclusive: 23.9 µM [inhibitor, partial curve]"
CCOC(=O)c1ccc(NC(=O)Cn2nnc3ccccc32)cc1,,active: 10.7 µM
O=C(COC(=O)c1cc(-c2ccccc2)nc2ccccc12)NCC1CCCO1 (stereo not drawn),,"inconclusive: 30.1 µM [inhibitor, single point]"
O=C(Nc1cccc(C(F)(F)F)c1)c1cccc(NS(=O)(=O)c2ccc(O)c(C(=O)O)c2)c1,,"inconclusive: 23.9 µM [inhibitor, single point]"
CCOc1ccc(OCCC(=O)OCC(=O)Nc2cc(S(=O)(=O)N3CCOCC3)ccc2C)cc1,,"inconclusive: 21.3 µM [inhibitor, single point]"
Cc1ccc(-n2[nH]c(C)c(/C=N/NC(=O)c3ccc([N+](=O)[O-])cc3)c2=O)c(C)c1,,"inconclusive: 26.9 µM [inhibitor, single point]"
CCOc1cc(C2NN=C(c3ccccc3)S2)ccc1OCc1ccccc1Cl (stereo not drawn),,active: 7.57 µM
O=C(NN=C1CCCC1)c1n[nH]c2c1CCC2,,"inconclusive: 37.9 µM [inhibitor, partial curve, poor fit]"
Cc1cccc(N2CCN(C(=S)NC3CCCCC3)CC2)c1C,,"inconclusive: 23.9 µM [inhibitor, partial curve, poor fit]"
CC(=O)NC(=S)Nc1ccc(NC(=O)c2cccs2)cc1,,"inconclusive: 13.5 µM [inhibitor, partial curve, poor fit]"

Compound,"activity change, negative = inhibition",Potency
CCOC(=O)Nc1ccc2nc(Sc3ccc(Cl)cc3)sc2c1,,"inconclusive: 37.9 µM [inhibitor, partial curve, poor fit]"
COc1cccc(NC(=O)Cn2c(=O)n(CCCCC(=O)NCc3ccccc3Cl)c(=O)c3ccccc32)c1,inactive: 0.771%,
O=C(CSc1nccn1-c1ncc(C(F)(F)F)cc1Cl)c1ccc(Cl)cc1,,"inconclusive: 16.9 µM [inhibitor, partial curve, poor fit]"
CC(C)n1cnc2c(Nc3cccc(F)c3)nc(NCCO)nc21,,"inconclusive: 33.8 µM [inhibitor, partial curve, poor fit]"
CCOc1ccccc1N1CCN(S(=O)(=O)c2ccc(C3CCCCC3)cc2)CC1,inactive: 4.41%,
COc1ccc(/C=N/N(Cc2ccccc2)c2ccccc2)cc1O,,"inconclusive: 37.9 µM [inhibitor, partial curve, poor fit]"
COCCn1c(C)cc(C(=O)COC(=O)c2ccc3ncsc3c2)c1C,,active: 6.75 µM
COc1ccc(C(=O)COC(=O)CNC(=O)C2CCCCC2)c(OC)c1,,"inconclusive: 23.9 µM [inhibitor, single point]"
CC(C)C(=O)Nc1ccc2nc(SCC(=O)N3CCc4ccccc43)sc2c1,,"inconclusive: 6.01 µM [inhibitor, full curve]"
CC(C)C(=O)Nc1ccccc1C(=O)N/N=C/c1ccc([N+](=O)[O-])cc1,,"inconclusive: 15.1 µM [inhibitor, partial curve]"
COc1ccc(-c2csc3ncnc(Nc4cc(OC)cc(OC)c4)c23)cc1,inactive: 5.88%,
Cc1ccc(-n2c(SCC(=O)c3ccccc3)nc3c([nH]c4ccccc43)c2=O)cc1,inactive: -1.63%,
Cc1ccccc1CSCc1nc(N)nc(Nc2ccccc2C)n1,,"inconclusive: 30.1 µM [inhibitor, partial curve, poor fit]"
NC(=O)c1sc2nccc(Nc3ccccc3)c2c1N,,"inconclusive: 16.9 µM [inhibitor, partial curve]"
COc1ccccc1NC(=O)CSc1nnc(-c2ccoc2C)n1C,inactive: 1.45%,
CCNC(=S)N/N=C/c1ccc(-c2ccccc2)o1,,"inconclusive: 21.3 µM [inhibitor, partial curve]"
CCN1/C(=C/C=C/c2oc3ccc4ccccc4c3[n+]2CC)Oc2ccc3ccccc3c21,,"inconclusive: 12 µM [inhibitor, partial curve, poor fit]"
COc1ccccc1CNC(=O)CSc1nnc2c(n1)[nH]c1ccc(F)cc12,inactive: 1.15%,
CC1Cc2cc(S(=O)(=O)CCC(=O)NCc3ccccc3Cl)ccc2N1C(=O)C1CC1 (stereo not drawn),inactive: -1.24%,
Nc1ccc(C23CC4CC(CC(CO)(C4)C2)C3)cc1,,"inconclusive: 30.1 µM [inhibitor, partial curve, poor fit]"
O=C(CCCc1c[nH]c2ccccc12)Nc1ccc2ccccc2c1,,"inconclusive: 26.9 µM [inhibitor, partial curve, poor fit]"
O=C(NCCc1csc(-c2cccnc2)n1)c1c(F)cccc1F,,"inconclusive: 33.8 µM [inhibitor, single point]"
